From ChEMBL document CHEMBL1201862, “PubChem BioAssay data set” (2004)
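Interpolation was linear, between the two tested concentrations surrounding the appropriate level; five concentrations were tested over 48 hours in 96-well plates. GI50 is the concentration that inhibits growth by half.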 Active and inactive are the calls of the source. Cut-off read from the data, not from the text of the source: active = GI50 up to about 1.1 µM and inactive = higher.

tested on: NCI-H322M; test: NCI tumour cell line growth inhibition, 48 h

Question: For `Nc1nc2c(ncn2CCOC(c2ccccc2)P(=O)(O)O)c(=O)[nH]1` (stereo unspecified), which GI50 is on record?
Answer: inactive: > 100 µM

Question: `CCCCNC(=S)N/C=C1\C(=O)Nc2ccccc2C1=O` was tested. Which GI50 did it give?
Answer: inactive: > 10 µM

Question: How did the GI50 turn out when `CCCCSC1=N/C(=C\c2ccccc2O)C(=O)N1` was run?
Answer: inactive: > 100 µM

Question: Which GI50 does the source give for `CCCOP(=S)(N1CC1)N1CC1` here?
Answer: inactive: > 100 µM

Question: Which GI50 does the source give for `O=Cc1c(Br)[nH]c2ccccc12` here?
Answer: inactive: > 100 µM

Question: `Cc1ccc(NC(=O)COc2ccc(Cl)cc2)cc1Cl` was tested. Which GI50 did it give?
Answer: inactive: > 100 µM

Question: `O=C1/C(=C/c2ccccc2)CNC/C1=C\c1ccccc1` was tested. Which GI50 did it give?
Answer: inactive: 3.36 µM

Question: Which GI50 does the source give for `COc1ccc2c3c(ccc2c1)NC(C(=O)O)CC3` (stereo unspecified) here?
Answer: inactive: > 100 µM

Question: `CCOc1cc2c(cc1O)CC[C@@H]1[C@@H]2CC[C@]2(C)[C@@H](O)CC[C@@H]12` was tested. Which GI50 did it give?
Answer: active: 0.0673 µM

Question: How did the GI50 turn out when `O=C1Nc2cccc(Cl)c2/C1=C\c1cccnc1` was run?
Answer: inactive: 16.3 µM

Question: With `c1cc2nnsc2s1` as the compound, how does the GI50 read?
Answer: inactive: > 100 µM

Question: With `O=C1C(Cl)=C(N2CCN(C3=C(Cl)C(=O)c4ccccc4C3=O)CC2)C(=O)c2ccccc21` as the compound, how does the GI50 read?
Answer: inactive: 12.6 µM

Question: For `C=C1C(=O)OC2C1CCC(=C)C1CC(O)C(=C)C12` (stereo unspecified), which GI50 is on record?
Answer: inactive: 24.8 µM

Question: `O=C(c1ccccc1)c1ccc2n[se]nc2c1` was tested. Which GI50 did it give?
Answer: inactive: 56.1 µM

Question: For `NC(=O)N/N=C1\CCCCc2ccccc21`, which GI50 is on record?
Answer: inactive: > 10 µM

Question: With `CCC(Sc1cc(Cl)c(C)cc1S(=O)(=O)Nc1nc(N)nc(N(C)C)n1)C(=O)O` (stereo unspecified) as the compound, how does the GI50 read?
Answer: inactive: > 10 µM

Question: How did the GI50 turn out when `COc1ccc(C(=O)c2sc(N(C)C)nc2-c2ccccc2)cc1` was run?
Answer: inactive: 96.2 µM

Question: For `COc1ccc(CC(CO)NC(=O)OCc2ccccc2)cc1Oc1ccc(CC(CO)NC(=O)OCc2ccccc2)cc1` (stereo unspecified), which GI50 is on record?
Answer: inactive: 19.3 µM

Question: `Nc1nc(NCC2(CO)CCC2)cc(=O)[nH]1` was tested. Which GI50 did it give?
Answer: inactive: > 100 µM

Question: With `Cc1ccc(C2=C(c3ccccc3)C(O)(c3ccc(C)cc3)C(c3ccccc3)=C2c2ccc(C)cc2)cc1` as the compound, how does the GI50 read?
Answer: inactive: > 100 µM

Question: `C=CCNC1=C2C[C@@H](C)C[C@@H](OC)[C@H](OC(=O)CCCCN)[C@H](C)/C=C(\C)[C@@H](OC(N)=O)[C@H](OC)/C=C\C=C(/C)C(=O)NC(=CC1=O)C2=O` was tested. Which GI50 did it give?
Answer: inactive: 12.6 µM

Question: Which GI50 does the source give for `FC(F)(F)c1cccc(-c2nc3nc(Cl)c(Cl)nc3[nH]2)c1` here?
Answer: inactive: 2.3 µM

Question: How did the GI50 turn out when `c1ccc(OC2=NC3=S(S2)SC(Oc2ccccc2)=N3)cc1` was run?
Answer: inactive: 18.9 µM

Question: With `C=CCNC(=O)CN(CC(=O)OC)C1CCCCC1N(CC(=O)OC)CC(=O)OC` (stereo unspecified) as the compound, how does the GI50 read?
Answer: inactive: > 100 µM

Question: Which GI50 does the source give for `CC(=O)Oc1ccc2c(c1)c1c(OC(C)=O)c3ccccc3c(OC(C)=O)c1n2Cc1cccc(C)c1` here?
Answer: inactive: 75.3 µM

Question: With `COc1ccc2cc1Oc1ccc(cc1)C[C@H]1c3cc(c(OC)cc3CCN1C)Oc1c(O)c(OC)cc3c1[C@H](C2)N(C)CC3` [FANGCHINOLINE] as the compound, how does the GI50 read?
Answer: inactive: 36.5 µM

Question: How did the GI50 turn out when `c1cc2c3ccsc3c3sccc3c2s1` was run?
Answer: inactive: > 100 µM

Question: Which GI50 does the source give for `CO/N=C(\C)c1ccc(Nc2c3ccccc3nc3occc23)cc1` here?
Answer: inactive: 2.65 µM

Question: For `N#CC1=C(N)OC2=C(CCCc3ccc([N+](=O)[O-])cc32)C1c1ccc(Cl)cc1` (stereo unspecified), which GI50 is on record?
Answer: inactive: 10.7 µM

Question: With `O=C(NCCNCCO)N/N=C/c1ccc([N+](=O)[O-])cc1` as the compound, how does the GI50 read?
Answer: inactive: 71.1 µM

Question: Which GI50 does the source give for `Cc1cc(C)nc(NS(=O)(=O)c2ccc(NC(=O)c3cccc4c(N)c5ccccc5nc34)cc2)n1` here?
Answer: inactive: > 100 µM

Question: How did the GI50 turn out when `C=C(CC[C@@H](C)[C@H]1CC[C@@]2(C)C3=C(CC[C@]12C)[C@@]1(C)CC[C@H](O)[C@@H](C)C1CC3)C(C)C` (stereo partly specified) was run?
Answer: inactive: 1.2 µM

Question: With `CN(C)CCN(C)C(=O)c1cccc2cccc(C(=O)O)c12` as the compound, how does the GI50 read?
Answer: inactive: > 100 µM

Question: Which GI50 does the source give for `CCOP(=O)(OCC)C1CCCOC1=O` (stereo unspecified) here?
Answer: inactive: > 100 µM

Question: How did the GI50 turn out when `O=C(Nc1nnc(S)[nH]1)C(=O)C(c1cnc2ccc([N+](=O)[O-])cc2n1)[N+](=O)[O-]` (stereo unspecified) was run?
Answer: inactive: > 100 µM

Question: With `CC1Cc2cc(O)ccc2C2[C@@H]1C1CC[C@H](O)[C@@]1(C)C[C@@H]2O[N+](=O)[O-]` (stereo partly specified) as the compound, how does the GI50 read?
Answer: inactive: 19.9 µM
